# From the supplement of paper PMC10037445
# Several values for one entry are separate records, joined by “and”; a condition that tells them apart may be missing. Identical values can stand only once. The full ranking holds about 2,900 compounds; the median of “NF-kB SEAP reporter activity, fold change vs agonist alone” is about 0.99, and the highest 2% start at about 2.6. This is one part of the list.
# How the values were obtained:
# RAW-Dual [1] = test: NF-kB SEAP reporter activity, fold change vs agonist alone; higher = enhanced NF-kB activity; conditions: library stock concentration (final ~1000-fold dilution): 10 mM
# How it was run: (§1)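 RAW-Dual macrophages were seeded in DMEM at 50,000 cells/well in 384-well plates, given 50 nL of library stock by pin tool, and given a PRR agonist 1 h later. Plates were held at 37 °C, 5% CO2 for 20 hours, after which supernatant was read for IRF by QuantiLuc luminescence and for NF-κB by QuantiBlue absorbance at 620 nm. Reporter activity is expressed as fold change over wells that received agonist alone. A well was called cytotoxic when IncuCyte confluency fell below 70% of agonist controls in both mask sets.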
# RAW-Dual [2] = test: NF-kB SEAP reporter activity, fold change vs agonist alone; cytotoxicity flag (confluency mask): not cytotoxic; higher = enhanced NF-kB activity
# How it was run: as §1
# RAW-Dual [3] = test: NF-kB SEAP reporter activity, fold change vs agonist alone; cytotoxicity flag (confluency mask): cytotoxic (confluency <70% of control); higher = enhanced NF-kB activity
# How it was run: as §1
# [4] = cytotoxicity flag (confluency mask): not cytotoxic, agonist: Imiquimod (TLR7) […]
# [5] = cytotoxicity flag (confluency mask): not cytotoxic, agonist: MPLA (TLR4) […]
# [6] = agonist: ODN 1826 (TLR9) 0.5 ug/mL
# [7] = agonist: Pam2CSK4 (TLR2/6) 0.1 ug/mL
# [8] = agonist: Pam3CSK4 (TLR2/1) 0.1 ug/mL
smiles,measurement,setting,value
COc1cc2ncnc(Nc3ccc(Oc4ccccc4)cc3C)c2cc1OC.Cl,NF-kB SEAP reporter activity,RAW-Dual [1]; [4],1.37
same,NF-kB SEAP reporter activity,RAW-Dual [1]; [5],0.792
COc1cc2ncnc(Nc3ccc(Oc4ccccc4)cc3C)c2cc1OC.Cl (library stock concentration (final ~1000-fold dilution): 10 mM),NF-kB SEAP reporter activity,RAW-Dual [2]; agonist: LPS (TLR4) 0.1 ug/mL,1.05
same,NF-kB SEAP reporter activity,RAW-Dual [2]; [6],0.422
same,NF-kB SEAP reporter activity,RAW-Dual [2]; [7],0.297
same,NF-kB SEAP reporter activity,RAW-Dual [2]; [8],0.42
Cc1cccc(-c2n[nH]cc2-c2ccc3ncccc3n2)n1 (library stock concentration (final ~1000-fold dilution): 10 mM),NF-kB SEAP reporter activity,RAW-Dual [2]; agonist: LPS (TLR4) 0.1 ug/mL,2.27
same,NF-kB SEAP reporter activity,RAW-Dual [2]; [6],1.58
same,NF-kB SEAP reporter activity,RAW-Dual [2]; [7],1.1
same,NF-kB SEAP reporter activity,RAW-Dual [2]; [8],1.61
Cc1cccc(-c2n[nH]cc2-c2ccc3ncccc3n2)n1,NF-kB SEAP reporter activity,RAW-Dual [1]; [4],1.16
same,NF-kB SEAP reporter activity,RAW-Dual [1]; [5],1.79
Cc1ccc(-c2c(-c3nn(C)c4ncnc(N5CCC(N6CCCCC6)C5)c34)cnn2C)cc1 (configuration not stated),NF-kB SEAP reporter activity,RAW-Dual [1]; [4],0.947
same,NF-kB SEAP reporter activity,RAW-Dual [1]; [5],1.09
Cc1ccc(-c2c(-c3nn(C)c4ncnc(N5CCC(N6CCCCC6)C5)c34)cnn2C)cc1 (configuration not stated) (library stock concentration (final ~1000-fold dilution): 10 mM),NF-kB SEAP reporter activity,RAW-Dual [2]; agonist: LPS (TLR4) 0.1 ug/mL,1.57
same,NF-kB SEAP reporter activity,RAW-Dual [2]; [6],0.856
same,NF-kB SEAP reporter activity,RAW-Dual [2]; [7],1.21
same,NF-kB SEAP reporter activity,RAW-Dual [2]; [8],1.16
CN1CCC(c2c(O)cc(O)c3c(=O)cc(-c4ccccc4Cl)oc23)C1CO.Cl (configuration not stated),NF-kB SEAP reporter activity,"RAW-Dual [1]; cytotoxicity flag (confluency mask): cytotoxic (confluency <70% of control), agonist: Imiquimod (TLR7) […]",0.313
same,NF-kB SEAP reporter activity,"RAW-Dual [1]; cytotoxicity flag (confluency mask): cytotoxic (confluency <70% of control), agonist: MPLA (TLR4) […]",0.654
CN1CCC(c2c(O)cc(O)c3c(=O)cc(-c4ccccc4Cl)oc23)C1CO.Cl (configuration not stated) (library stock concentration (final ~1000-fold dilution): 10 mM),NF-kB SEAP reporter activity,RAW-Dual [3]; agonist: LPS (TLR4) 0.1 ug/mL,0.291
same,NF-kB SEAP reporter activity,RAW-Dual [3]; [6],0.258
same,NF-kB SEAP reporter activity,RAW-Dual [3]; [7],0.0831
same,NF-kB SEAP reporter activity,RAW-Dual [3]; [8],0.15
Cc1cc(-c2ccnc3cc(O)ccc23)ccc1O (library stock concentration (final ~1000-fold dilution): .1 mM),NF-kB SEAP reporter activity,RAW-Dual [2]; agonist: LPS (TLR4) 0.1 ug/mL,3.3
COc1cc2c(cc1OC)-c1cc3ccc4c(c3c[n+]1CC2)OCO4 (library stock concentration (final ~1000-fold dilution): 10 mM),NF-kB SEAP reporter activity,RAW-Dual [2]; agonist: LPS (TLR4) 0.1 ug/mL,1.04 and 1.03
same,NF-kB SEAP reporter activity,RAW-Dual [2]; [6],1.06 and 0.845
same,NF-kB SEAP reporter activity,RAW-Dual [2]; [7],1.13 and 1.06
same,NF-kB SEAP reporter activity,RAW-Dual [2]; [8],0.986 and 1.09
CCc1cccc2c3c([nH]c12)C(CC)(CC(=O)O)OCC3 (configuration not stated),NF-kB SEAP reporter activity,RAW-Dual [1]; [4],0.875
same,NF-kB SEAP reporter activity,RAW-Dual [1]; [5],1.13
CCc1cccc2c3c([nH]c12)C(CC)(CC(=O)O)OCC3 (configuration not stated) (library stock concentration (final ~1000-fold dilution): 10 mM),NF-kB SEAP reporter activity,RAW-Dual [2]; agonist: LPS (TLR4) 0.1 ug/mL,1.03
same,NF-kB SEAP reporter activity,RAW-Dual [2]; [6],0.896
same,NF-kB SEAP reporter activity,RAW-Dual [2]; [7],1.02
same,NF-kB SEAP reporter activity,RAW-Dual [2]; [8],1.06
O=C1CC(c2c[nH]c3ccc(F)cc23)C(=O)N1 (configuration not stated),NF-kB SEAP reporter activity,RAW-Dual [1]; [4],0.946
same,NF-kB SEAP reporter activity,RAW-Dual [1]; [5],1.03
O=C1CC(c2c[nH]c3ccc(F)cc23)C(=O)N1 (configuration not stated) (library stock concentration (final ~1000-fold dilution): 10 mM),NF-kB SEAP reporter activity,RAW-Dual [2]; agonist: LPS (TLR4) 0.1 ug/mL,1.08
same,NF-kB SEAP reporter activity,RAW-Dual [2]; [6],0.919
same,NF-kB SEAP reporter activity,RAW-Dual [2]; [7],1.09
same,NF-kB SEAP reporter activity,RAW-Dual [2]; [8],1.17
CC(C)=CC(C)C[C@](C)(O[C@@H]1O[C@H](CO)[C@@H](O)[C@H](O)[C@H]1O)[C@H]1CC[C@]2(C)C3CCC4C(C)(C)C(O[C@@H]5O[C@H](CO)[C@@H](O)[C@H](O)[C@H]5O[C@@H]5O[C@H](CO)[C@@H](O)[C@H](O)[C@H]5O)CC[C@]4(C)C3C[C@H](O)[C@@H]12 (some centres not stated) (library stock concentration (final ~1000-fold dilution): 10 mM),NF-kB SEAP reporter activity,RAW-Dual [2]; agonist: LPS (TLR4) 0.1 ug/mL,1.18
same,NF-kB SEAP reporter activity,RAW-Dual [2]; [6],1.06
same,NF-kB SEAP reporter activity,RAW-Dual [2]; [7],1.04
same,NF-kB SEAP reporter activity,RAW-Dual [2]; [8],1.04
CC(C)=CC(C)C[C@](C)(O[C@@H]1O[C@H](CO)[C@@H](O)[C@H](O)[C@H]1O)[C@H]1CC[C@]2(C)C3CCC4C(C)(C)C(O[C@@H]5O[C@H](CO)[C@@H](O)[C@H](O)[C@H]5O[C@@H]5O[C@H](CO)[C@@H](O)[C@H](O)[C@H]5O)CC[C@]4(C)C3C[C@H](O)[C@@H]12 (some centres not stated),NF-kB SEAP reporter activity,RAW-Dual [1]; [4],0.936
same,NF-kB SEAP reporter activity,RAW-Dual [1]; [5],1.05
